Assay results reported in article PMC9947773, “Modeling C3 glomerulopathies: C3 convertase regulation on an extracellular matrix surface” (Frontiers in Immunology, 2022).

Columns and labels:
Conditions in all cases: both partners purified
C3b [1] = target: T1, C3b (human, UniProt P01024 23-667; P01024 part only); assay: C3 convertase decay assay (C3CDA), elution and western blot for Bb; C3 convertase formed on C3b-coated MaxGel with FB + FD alone, washed, left to decay in assay buffer alone at 37°C for set times, washed; half-life from a second order polynomial fit
T1 construct: complement C3, human; beta chain of C3b; alpha' chain of C3b (alpha chain without C3a); Coated on MaxGel (ECM) in microtiter wells at 130 ug/ml; also called purified C3b; source: bought: Complement Technology Inc., purified

C3b [2] = target: T1, C3b; assay: C3 convertase decay assay (C3CDA), elution and western blot for Bb; C3 convertase formed on C3b-coated MaxGel with FB + FD, washed, then decayed in assay buffer with Factor H or a Factor H variant at 37°C
C3b [3] = target: T1, C3b; assay: C3 convertase formation assay (C3CFA), elution and western blot for Bb; C3b (130 ug/ml) coated on MaxGel in microtiter wells; FB 10.5 ug/ml + FD 0.1 ug/ml alone, 10 min at 37°C in assay buffer (phosphate, 75mM NaCl, 10mM MgCl2, 0.05% Tween20, 2% BSA, pH 7.0); washed x3; eluted with 10mM EDTA, 1% SDS

T1 sequence (P01024 23-667, chain 1 of 2): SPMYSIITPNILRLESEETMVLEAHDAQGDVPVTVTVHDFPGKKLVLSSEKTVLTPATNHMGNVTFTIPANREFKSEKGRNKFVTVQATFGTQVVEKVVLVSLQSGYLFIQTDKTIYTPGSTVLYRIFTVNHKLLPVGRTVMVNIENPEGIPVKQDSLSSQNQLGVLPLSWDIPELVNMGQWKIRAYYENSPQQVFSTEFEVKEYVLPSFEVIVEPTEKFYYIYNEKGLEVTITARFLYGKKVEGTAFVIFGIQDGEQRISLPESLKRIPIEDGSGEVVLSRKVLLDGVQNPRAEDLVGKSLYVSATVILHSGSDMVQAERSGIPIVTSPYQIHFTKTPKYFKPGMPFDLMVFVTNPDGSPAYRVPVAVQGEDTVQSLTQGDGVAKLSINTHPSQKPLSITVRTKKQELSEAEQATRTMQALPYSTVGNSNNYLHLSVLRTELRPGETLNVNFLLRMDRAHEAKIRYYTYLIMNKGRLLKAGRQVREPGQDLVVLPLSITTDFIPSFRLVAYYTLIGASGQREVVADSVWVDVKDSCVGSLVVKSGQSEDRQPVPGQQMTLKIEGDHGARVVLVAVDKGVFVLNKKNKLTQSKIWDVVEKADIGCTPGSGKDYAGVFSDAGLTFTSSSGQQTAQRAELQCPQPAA
T1 sequence (P01024 749-1663, chain 2 of 2): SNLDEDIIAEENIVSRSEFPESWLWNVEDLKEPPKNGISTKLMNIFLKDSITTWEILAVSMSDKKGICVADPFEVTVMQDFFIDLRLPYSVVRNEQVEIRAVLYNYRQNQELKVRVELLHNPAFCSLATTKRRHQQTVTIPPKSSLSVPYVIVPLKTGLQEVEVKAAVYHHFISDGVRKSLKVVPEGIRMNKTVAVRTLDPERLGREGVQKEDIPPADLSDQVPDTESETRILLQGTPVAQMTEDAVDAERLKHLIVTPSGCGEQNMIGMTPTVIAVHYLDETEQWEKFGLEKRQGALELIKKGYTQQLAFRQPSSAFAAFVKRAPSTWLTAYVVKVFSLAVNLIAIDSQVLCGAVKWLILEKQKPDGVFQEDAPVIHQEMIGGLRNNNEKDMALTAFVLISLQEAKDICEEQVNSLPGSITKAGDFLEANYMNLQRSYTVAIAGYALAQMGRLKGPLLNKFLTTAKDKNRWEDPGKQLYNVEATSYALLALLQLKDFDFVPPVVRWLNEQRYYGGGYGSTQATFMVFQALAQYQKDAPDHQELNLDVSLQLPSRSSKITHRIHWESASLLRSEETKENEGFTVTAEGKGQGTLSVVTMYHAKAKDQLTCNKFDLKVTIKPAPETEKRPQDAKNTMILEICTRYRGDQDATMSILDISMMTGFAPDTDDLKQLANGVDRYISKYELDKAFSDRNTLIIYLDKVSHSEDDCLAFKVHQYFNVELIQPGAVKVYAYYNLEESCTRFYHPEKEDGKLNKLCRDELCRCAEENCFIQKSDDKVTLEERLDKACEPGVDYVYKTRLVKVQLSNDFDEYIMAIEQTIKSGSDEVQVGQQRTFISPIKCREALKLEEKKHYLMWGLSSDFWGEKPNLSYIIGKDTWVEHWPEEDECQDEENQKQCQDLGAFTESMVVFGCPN

B1: Recombinant Factor B p.Phe286Leu, uncleaved (in C3bB) (natural protein, human, UniProt P00751 26-764, looked up)
chain: TPWSLARPQGSCSLEGVEIKGGSFRLLQEGQALEYVCPSGFYPYPVQTRTCRSTGSWSTLKTQDQKTVRKAECRAIHCPRPHDFENGEYWPRSPYYNVSDEISFHCYDGYTLRGSANRTCQVNGRWSGQTAICDNGAGYCSNPGIPIGTRKVGSQYRLEDSVTYHCSRGLTLRGSQRRTCQEGGSWSGTEPSCQDSFMYDTPQEVAEAFLSSLTETIEGVDAEDGHGPGEQQKRKIVLDPSGSMNIYLVLDGSDSIGASNLTGAKKCLVNLIEKVASYGVKPRYGLVTYATYPKIWVKVSEADSSNADWVTKQLNEINYEDHKLKSGTNTKKALQAVYSMMSWPDDVPPEGWNRTRHVIILMTDGLHNMGGDPITVIDEIRDLLYIGKDRKNPREDYLDVYVFGVGPLVNQVNINALASKKDNEQHVFKVKDMENLEDVFYQMIDESQSLSLCGMVWEHRKGTDYHKQPWQAKISVIRPSKGHESCMGAVVSEYFVLTAAHCFTVDDKEHSIKVSVGGEKRDLEIEVVLFHPNYNINGKKEAGIPEFYDYDVALIKLKNKLKYGQTIRPICLPCTEGTTRALRLPPTTTCQQQKEELLPAQDIKALFVSEEEKKLTRKEVYIKNGDKKGSCERDAQYAPGYDKVKDISEVVTPRFLCTGGVSPYADPNTCRGDSGGPLIVHKRSRFIQVGVISWGVVDVCKNQKRQKQVPAHARDFHINLFQVLPWLKEKLQDEDLGFL
notes: signal peptide in the construct; complement factor B, human; the DNA coding region was synthesized and the protein purified from the culture supernatant; variant in the VWA subunit of Bb; Found on C3b as uncleaved C3bB; also called FB p.Phe286Leu; source: Expi 293 cells, purified from culture supernatant (Ni2+ column); not shown: His-tag, C-terminal, kept
binding result (C3b [1]): binds

B2: Bb fragment of recombinant FB p.Asp279Gly (domain or fragment, human, UniProt P00751 260-764, looked up)
chain: KIVLDPSGSMNIYLVLDGSGSIGASNFTGAKKCLVNLIEKVASYGVKPRYGLVTYATYPKIWVKVSEADSSNADWVTKQLNEINYEDHKLKSGTNTKKALQAVYSMMSWPDDVPPEGWNRTRHVIILMTDGLHNMGGDPITVIDEIRDLLYIGKDRKNPREDYLDVYVFGVGPLVNQVNINALASKKDNEQHVFKVKDMENLEDVFYQMIDESQSLSLCGMVWEHRKGTDYHKQPWQAKISVIRPSKGHESCMGAVVSEYFVLTAAHCFTVDDKEHSIKVSVGGEKRDLEIEVVLFHPNYNINGKKEAGIPEFYDYDVALIKLKNKLKYGQTIRPICLPCTEGTTRALRLPPTTTCQQQKEELLPAQDIKALFVSEEEKKLTRKEVYIKNGDKKGSCERDAQYAPGYDKVKDISEVVTPRFLCTGGVSPYADPNTCRGDSGGPLIVHKRSRFIQVGVISWGVVDVCKNQKRQKQVPAHARDFHINLFQVLPWLKEKLQDEDLGFL
notes: complement factor B, human; Bb fragment cut from the recombinant variant by Factor D on C3b; variant in the VWA subunit of Bb; also called D279G; source: Factor B variant from Expi 293 cells, purified from culture supernatant (Ni2+ column); cut by Factor D in the assay; not shown: His-tag, C-terminal, kept
t1/2 of C3bBb decay with FH (C3b [2]): 6.6 min
t1/2 of C3bBb decay (C3b [1]): > 10 min
fold C3 convertase formation against CA (WT FB) (C3b [3]): ~1.5 fold
